Data as given in PubChem BioAssay (NCATS).
Several values for one entry are separate records, joined by “and”; a condition that tells them apart may be missing. Identical values can stand only once. The entries are a selection whose mix differs from that of the whole data set. Inconclusive results are not listed. Activity calls are given as the source filed them. Unless noted, calls come from the whole dose curve; as a rule, active = well fitted curve in the direction sought with a large enough effect; inconclusive = small, poorly fitted or top-dose-only effect, or another doubt; inactive = no such curve, though single readings can be large; an effect the other way counts as inactive or inconclusive.

target: Cytochrome P450 1A2 (Homo sapiens) (UniProt P05177); assay: p450-cyp1a2 (AID 410; calls by dose curve); settings: recombinant CYP1A2, luciferin-ME demethylation, luminescence; series mostly up to 57 µM
Summary of the method: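 Inhibition was calculated relative to 57 uM furafylline (full inhibition). The reaction used human CYP1A2 at 20nM with Luciferin-ME at its Km, 100uM, driven by an NADPH-regenerating system for 60 min at room temperature.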
Potency is the fitted concentration of half-maximal effect.

Row | SMILES | Potency
1 | Clc1ccc(CS[C@@H](Cn2ccnc2)c2ccc(Cl)cc2Cl)cc1 | active: 200 nM
2 | CCN(CC)CCOC(=O)C1(C2CCCCC2)CCCCC1 | active: 12.6 µM and active: 3.98 µM
3 | CN1[C@@H]2CC[C@H]1CC(OC(=O)[C@@H](O)c1ccccc1)C2 (stereo partly drawn) | inactive

target: Glucocorticoid receptor (Homo sapiens) (UniProt P04150); assay: GR-GFP Redistribution (AID 450;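 active = compounds whose dose series gives a full or clear partial fitted curve of increased nuclear translocation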); settings: U2OS GR-GFP nuclear translocation, laser cytometry, 2 h

Row | SMILES | Potency
4 | C[C@H]1C[C@H]2[C@H]3CCC4=CC(=O)C=C[C@@]4(C)[C@]3(F)[C@H](O)C[C@]2(C)[C@@]1(O)C(=O)COP(=O)(O)O | active: 0.046 µM
5 | C[C@@H]1C[C@H]2[C@@H]3CCC4=CC(=O)C=C[C@]4(C)[C@@]3(F)[C@@H](O)C[C@]2(C)[C@@]1(O)C(=O)COP(=O)(O)O | active: 0.0153 µM
6 | CC(C)(C)CC(C)(C)c1ccc(OCCOCC[N+](C)(C)Cc2ccccc2)cc1 | inactive: > 20.6 µM

target: Cytochrome P450 2C9 (Homo sapiens) (UniProt P11712); assay: qHTS Assay for Inhibitors and Substrates of Cytochrome P450 2C9 (AID 883); settings: recombinant CYP2C9, luciferin-H luminescence, 60 min; series mostly up to 57.1 µM; note: nearly all actives have a fitted effect of over 60% in size
Summary of the method: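 CYP2C9 deoxyluciferin hydroxylation, 37C, 60 min with NADPH regeneration; 10nM enzyme, 100uM Luciferin-H (KM). Glo detection reagent stopped reaction; luminescence normalized to sulphaphenazole (57uM) full inhibition.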

Row | SMILES | Potency
7 | Clc1ccc(CS[C@@H](Cn2ccnc2)c2ccc(Cl)cc2Cl)cc1 | active: 20 nM
8 | CCN(CC)CCOC(=O)C1(C2CCCCC2)CCCCC1 | inactive
9 | CN1[C@@H]2CC[C@H]1CC(OC(=O)[C@@H](O)c1ccccc1)C2 (stereo partly drawn) | inactive
10 | CCN(Cc1ccncc1)C(=O)[C@@H](CO)c1ccccc1 | active: 12.6 µM and active: 3.98 µM and active: 794 nM

target: Voltage-gated inwardly rectifying potassium channel KCNH2 (Homo sapiens) (UniProt Q12809); assay: qHTS Assay for Small Molecule Inhibitors of the Human hERG Channel Activity (AID 588834); settings: U2OS BacMam hERG, FluxOR thallium flux fluorescence; series mostly up to 46.1 µM;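 note: lower thallium flux fluorescence means stronger hERG block; nearly all actives have a fitted effect of over 50% in size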
Summary of the method: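 hERG-BacMam U2OS, 2000 cells/well; 0.7X FluxOR loading 1 hr RT dark; cpd ~10 min 37 °C; stim buffer; FDSS fluorescence 2 min @ 1 s; AC50 Hill fit.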

Row | SMILES | Potency
11 | CN(C)CC/C=C1\c2ccccc2COc2ccccc21 | active: 10 µM
12 | CCN(CC)CCOC(=O)C1(C2CCCCC2)CCCCC1 | active: 2.24 µM
13 | O=c1n(CCCN2CCN(c3cccc(Cl)c3)CC2)nc2ccccn12 | active: 7.08 µM and active: 6.31 µM
14 | CN1[C@@H]2CC[C@H]1CC(OC(=O)C(O)c1ccccc1)C2 (stereo partly drawn) | inactive
15 | CN1CCC(=C2c3ccccc3C=Cc3ccccc32)CC1 | active: 10 µM
16 | Cc1ccccc1C(OCCN(C)C)c1ccccc1 (stereo not drawn) | active: 15.8 µM and active: 8.91 µM
17 | C(=C\c1ccccc1)/CN1CCN(C(c2ccccc2)c2ccccc2)CC1 | active: 501 nM and active: 1 µM

target: Tyrosine-protein kinase Yes (Homo sapiens) (UniProt P07947); assay: qHTS for small molecule inhibitors of Yes1 kinase: Primary Screen (AID 686947); settings: Yes1 kinase biochemical qHTS inhibition; note: nearly all actives have a fitted effect of over 60% in size
Summary of the method: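 ADP-Glo luminescence readout; final 4 nM Yes1, 0.1 mM ATP, 0.3 mg/mL poly(E4Y), Tris pH 7.5, MgCl2, DTT, Brij-35. 20 min compound preincubation, 60 min reaction at RT. Normalized to DMSO wells with and without enzyme.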

Row | SMILES | Potency
18 | CC(C)(C)c1ccc(Oc2nccc(-c3c(-c4ccc(F)cc4)ncn3C3CCNCC3)n2)cc1 | active: 5.82 µM
19 | Fc1ccc(-c2ncn(C3CCNCC3)c2-c2ccnc(Oc3ccc(Cl)cc3)n2)cc1 | active: 13 µM
20 | O=C1NC(=O)C(c2cccc([N+](=O)[O-])c2)=C1Nc1cc(Cl)c(O)c(Cl)c1 | active: 29.2 µM

target: Cytochrome P450 2D6 (Homo sapiens) (UniProt P10635); assay: Cytochrome P450 family 2 subfamily D member 6 (CYP2D6) small molecule antagonists: luciferase biochemical (cell-free) qHTS assay (AID 1645840; active = well fitted curve in the direction sought with a large enough effect in the repeat runs; an effect the other way counts as inactive or inconclusive; note: nearly all actives have a fitted effect of over 55% in size); settings: P450-Glo CYP2D6 enzyme, luciferin luminescence, 1 h
Summary of the method: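 P450-Glo luminescent screen: recombinant CYP2D6 enzyme–proluciferin substrate mix preincubated with compound 10 min at room temperature, then NADPH regeneration added for 1 h at room temperature. Detection reagent added for 20 min; luciferin light read as relative luminescence units.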

Row | SMILES | Potency
21 | CCN(CC)CCOC(=O)C1(C2CCCCC2)CCCCC1 | active: 2.45 µM
22 | CC(C)(C)c1ccc(C(=O)CCCN2CCC(OC(c3ccccc3)c3ccccc3)CC2)cc1 | active: 13.8 µM
23 | CN1CCC[C@@H]1CCO[C@](C)(c1ccccc1)c1ccc(Cl)cc1 | active: 0.49 µM
